Data reported in PMC9911399, “Two distinct binding modes provide the RNA-binding protein RbFox with extraordinary sequence specificity”.
Numbering of substitutions follows the chain as printed; changes in the protein carry UniProt numbers. The list shows a part of the results.

T1: RBFOX1 RRM (Homo sapiens, UniProt Q9NWB1 109-208)
T1 sequence: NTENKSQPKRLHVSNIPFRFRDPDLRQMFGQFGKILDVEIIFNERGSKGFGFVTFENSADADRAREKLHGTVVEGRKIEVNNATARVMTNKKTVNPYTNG

B1: GGUCGAA (DNA:RNA)
RNA: GGGAGACCGGAAUUCAGAUUGUCCGGUCGAAUUAAAUCCCGUCGUAGCCACCA
DNA 1: CAATCTGAATTCCGGTCTCCC
DNA 2: TGGTGGCTACGACGGGATT
B2: GAGGAGA (DNA:RNA)
RNA: B1 RNA with G26A, U27G, C28G, G29A, A30G
DNA 1: CAATCTGAATTCCGGTCTCCC
DNA 2: TGGTGGCTACGACGGGATT
B3: CCAUGAA (DNA:RNA)
RNA: B1 RNA with G25C, G26C, U27A, C28U
DNA 1: CAATCTGAATTCCGGTCTCCC
DNA 2: TGGTGGCTACGACGGGATT
B4: GAGGCUA (DNA:RNA)
RNA: B1 RNA with G26A, U27G, C28G, G29C, A30U
DNA 1: CAATCTGAATTCCGGTCTCCC
DNA 2: TGGTGGCTACGACGGGATT
B5: AACGCAA (DNA:RNA)
RNA: B1 RNA with G25A, G26A, U27C, C28G, G29C
DNA 1: CAATCTGAATTCCGGTCTCCC
DNA 2: TGGTGGCTACGACGGGATT
B6: CGGGUAU (DNA:RNA)
RNA: B1 RNA with G25C, U27G, C28G, G29U, A31U
DNA 1: CAATCTGAATTCCGGTCTCCC
DNA 2: TGGTGGCTACGACGGGATT
B7: CAAAACA (DNA:RNA)
RNA: B1 RNA with G25C, G26A, U27A, C28A, G29A, A30C
DNA 1: CAATCTGAATTCCGGTCTCCC
DNA 2: TGGTGGCTACGACGGGATT
B8: CGACGAU (DNA:RNA)
RNA: B1 RNA with G25C, U27A, A31U
DNA 1: CAATCTGAATTCCGGTCTCCC
DNA 2: TGGTGGCTACGACGGGATT
B9: UAGAAAA (DNA:RNA)
RNA: B1 RNA with G25U, G26A, U27G, C28A, G29A
DNA 1: CAATCTGAATTCCGGTCTCCC
DNA 2: TGGTGGCTACGACGGGATT
B10: GGCGAUU (DNA:RNA)
RNA: B1 RNA with U27C, C28G, G29A, A30U, A31U
DNA 1: CAATCTGAATTCCGGTCTCCC
DNA 2: TGGTGGCTACGACGGGATT
B11: CCAGCGU (DNA:RNA)
RNA: GGGAGACCGGAAUUCAGAUUGUCCCCAGCGUUUAAAUCCCGUCGUAGCCACCA
DNA 1: CAATCTGAATTCCGGTCTCCC
DNA 2: TGGTGGCTACGACGGGATT
B12: AGUCCAA (DNA:RNA)
RNA: B1 RNA with G25A, G29C
DNA 1: CAATCTGAATTCCGGTCTCCC
DNA 2: TGGTGGCTACGACGGGATT
B13: UGUGCAG (DNA:RNA)
RNA: B1 RNA with G25U, C28G, G29C, A31G
DNA 1: CAATCTGAATTCCGGTCTCCC
DNA 2: TGGTGGCTACGACGGGATT
B14: GUCCUCC (DNA:RNA)
RNA: B1 RNA with G26U, U27C, G29U, A30C, A31C
DNA 1: CAATCTGAATTCCGGTCTCCC
DNA 2: TGGTGGCTACGACGGGATT
B15: CCGAAUG (DNA:RNA)
RNA: B11 RNA with A27G, G28A, C29A, G30U, U31G
DNA 1: CAATCTGAATTCCGGTCTCCC
DNA 2: TGGTGGCTACGACGGGATT
B16: UGCCCAG (DNA:RNA)
RNA: B1 RNA with G25U, U27C, G29C, A31G
DNA 1: CAATCTGAATTCCGGTCTCCC
DNA 2: TGGTGGCTACGACGGGATT
B17: CAGCGAA (DNA:RNA)
RNA: B1 RNA with G25C, G26A, U27G
DNA 1: CAATCTGAATTCCGGTCTCCC
DNA 2: TGGTGGCTACGACGGGATT
B18: UUUUACG (DNA:RNA)
RNA: B1 RNA with G25U, G26U, C28U, G29A, A30C, A31G
DNA 1: CAATCTGAATTCCGGTCTCCC
DNA 2: TGGTGGCTACGACGGGATT
B19: ACGGGGC (DNA:RNA)
RNA: B11 RNA with C25A, A27G, C29G, U31C
DNA 1: CAATCTGAATTCCGGTCTCCC
DNA 2: TGGTGGCTACGACGGGATT
B20: CUGUAAA (DNA:RNA)
RNA: B1 RNA with G25C, G26U, U27G, C28U, G29A
DNA 1: CAATCTGAATTCCGGTCTCCC
DNA 2: TGGTGGCTACGACGGGATT
B21: CUGCGAA (DNA:RNA)
RNA: B1 RNA with G25C, G26U, U27G
DNA 1: CAATCTGAATTCCGGTCTCCC
DNA 2: TGGTGGCTACGACGGGATT
B22: CACGCUC (DNA:RNA)
RNA: B11 RNA with C26A, A27C, G30U, U31C
DNA 1: CAATCTGAATTCCGGTCTCCC
DNA 2: TGGTGGCTACGACGGGATT
B23: ACUCUUC (DNA:RNA)
RNA: B1 RNA with G25A, G26C, G29U, A30U, A31C
DNA 1: CAATCTGAATTCCGGTCTCCC
DNA 2: TGGTGGCTACGACGGGATT
B24: UUGAAGC (DNA:RNA)
RNA: B11 RNA with C25U, C26U, A27G, G28A, C29A, U31C
DNA 1: CAATCTGAATTCCGGTCTCCC
DNA 2: TGGTGGCTACGACGGGATT
B25: CGAGGAG (DNA:RNA)
RNA: B11 RNA with C26G, C29G, G30A, U31G
DNA 1: CAATCTGAATTCCGGTCTCCC
DNA 2: TGGTGGCTACGACGGGATT
B26: AAUUGCU (DNA:RNA)
RNA: B1 RNA with G25A, G26A, C28U, A30C, A31U
DNA 1: CAATCTGAATTCCGGTCTCCC
DNA 2: TGGTGGCTACGACGGGATT
B27: AUCCUCU (DNA:RNA)
RNA: B11 RNA with C25A, C26U, A27C, G28C, C29U, G30C
DNA 1: CAATCTGAATTCCGGTCTCCC
DNA 2: TGGTGGCTACGACGGGATT
B28: ACUCUUG (DNA:RNA)
RNA: B1 RNA with G25A, G26C, G29U, A30U, A31G
DNA 1: CAATCTGAATTCCGGTCTCCC
DNA 2: TGGTGGCTACGACGGGATT
B29: ACGCUGA (DNA:RNA)
RNA: B11 RNA with C25A, A27G, G28C, C29U, U31A
DNA 1: CAATCTGAATTCCGGTCTCCC
DNA 2: TGGTGGCTACGACGGGATT
B30: CGUUCUA (DNA:RNA)
RNA: B1 RNA with G25C, C28U, G29C, A30U
DNA 1: CAATCTGAATTCCGGTCTCCC
DNA 2: TGGTGGCTACGACGGGATT
B31: GAGACUC (DNA:RNA)
RNA: B11 RNA with C25G, C26A, A27G, G28A, G30U, U31C
DNA 1: CAATCTGAATTCCGGTCTCCC
DNA 2: TGGTGGCTACGACGGGATT

target: T1, RBFOX1 RRM; test: EMSA; HiTS-Eq, 1 nM pool, 10 min; buffer printed only for the single-RNA assays: 10 mM Tris pH 7.5, 150 mM NaCl, 3.4 mM EDTA, 0.001% NP-40, 30 C; conditions: tags: His6 N-terminal (pET28a); label: 5' 32P
Procedure, shortened: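 Relative association constants, normalised to the cognate motif, were derived by comparing read counts of each RNA species with those of the control reaction. The RNA sequenced was the free fraction, separated by 8% native PAGE after a 10 min equilibration in 50 µL of 1 nM 5′-radiolabelled RNA (7 randomized nucleotides) with increasing concentrations of purified wild-type or mutant RbFox RRM.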

Row | Binder | binding signal
1 | B1 | 0.00851 KA relative to UGCAUGU
2 | B2 | 0.0102 KA relative to UGCAUGU
3 | B3 | 0.00298 KA relative to UGCAUGU
4 | B4 | 0.0178 KA relative to UGCAUGU
5 | B5 | 0.00455 KA relative to UGCAUGU
6 | B6 | 0.0264 KA relative to UGCAUGU
7 | B7 | 0.00134 KA relative to UGCAUGU
8 | B8 | 0.011 KA relative to UGCAUGU
9 | B9 | 0.00205 KA relative to UGCAUGU
10 | B10 | 0.0121 KA relative to UGCAUGU
11 | B11 | 0.00657 KA relative to UGCAUGU
12 | B12 | 0.00171 KA relative to UGCAUGU
13 | B13 | 0.0216 KA relative to UGCAUGU
14 | B14 | 0.00969 KA relative to UGCAUGU
15 | B15 | 0.0174 KA relative to UGCAUGU
16 | B16 | 0.0164 KA relative to UGCAUGU

Row | Binder | binding signal
17 | B17 | 0.00745 KA relative to UGCAUGU
18 | B18 | 0.0168 KA relative to UGCAUGU
19 | B19 | 0.0165 KA relative to UGCAUGU
20 | B20 | 0.00865 KA relative to UGCAUGU
21 | B21 | 0.0155 KA relative to UGCAUGU
22 | B22 | 0.00564 KA relative to UGCAUGU
23 | B23 | 0.00543 KA relative to UGCAUGU
24 | B24 | 0.0163 KA relative to UGCAUGU
25 | B25 | 0.0107 KA relative to UGCAUGU
26 | B26 | 0.00776 KA relative to UGCAUGU
27 | B27 | 0.00303 KA relative to UGCAUGU
28 | B28 | 0.0078 KA relative to UGCAUGU
29 | B29 | 0.0109 KA relative to UGCAUGU
30 | B30 | 0.00814 KA relative to UGCAUGU
31 | B31 | 0.015 KA relative to UGCAUGU
